Laboratory results reported in PMC4336329 (PLoS ONE, 2015).
The campaign covered roughly 310,000 compounds. About 2,200 (0.71%) showed an effect of 50% or more. The effect is printed as a negative number. This is one part of the list.

These molecules were tested against human ether-à-go-go-related gene (hERG) potassium channel (human, UniProt Q12809) (assay: primary screen, population patch clamp on CHO cells stably expressing hERG).
Sequence of human ether-à-go-go-related gene (hERG) potassium channel (Q12809 whole entry, looked up): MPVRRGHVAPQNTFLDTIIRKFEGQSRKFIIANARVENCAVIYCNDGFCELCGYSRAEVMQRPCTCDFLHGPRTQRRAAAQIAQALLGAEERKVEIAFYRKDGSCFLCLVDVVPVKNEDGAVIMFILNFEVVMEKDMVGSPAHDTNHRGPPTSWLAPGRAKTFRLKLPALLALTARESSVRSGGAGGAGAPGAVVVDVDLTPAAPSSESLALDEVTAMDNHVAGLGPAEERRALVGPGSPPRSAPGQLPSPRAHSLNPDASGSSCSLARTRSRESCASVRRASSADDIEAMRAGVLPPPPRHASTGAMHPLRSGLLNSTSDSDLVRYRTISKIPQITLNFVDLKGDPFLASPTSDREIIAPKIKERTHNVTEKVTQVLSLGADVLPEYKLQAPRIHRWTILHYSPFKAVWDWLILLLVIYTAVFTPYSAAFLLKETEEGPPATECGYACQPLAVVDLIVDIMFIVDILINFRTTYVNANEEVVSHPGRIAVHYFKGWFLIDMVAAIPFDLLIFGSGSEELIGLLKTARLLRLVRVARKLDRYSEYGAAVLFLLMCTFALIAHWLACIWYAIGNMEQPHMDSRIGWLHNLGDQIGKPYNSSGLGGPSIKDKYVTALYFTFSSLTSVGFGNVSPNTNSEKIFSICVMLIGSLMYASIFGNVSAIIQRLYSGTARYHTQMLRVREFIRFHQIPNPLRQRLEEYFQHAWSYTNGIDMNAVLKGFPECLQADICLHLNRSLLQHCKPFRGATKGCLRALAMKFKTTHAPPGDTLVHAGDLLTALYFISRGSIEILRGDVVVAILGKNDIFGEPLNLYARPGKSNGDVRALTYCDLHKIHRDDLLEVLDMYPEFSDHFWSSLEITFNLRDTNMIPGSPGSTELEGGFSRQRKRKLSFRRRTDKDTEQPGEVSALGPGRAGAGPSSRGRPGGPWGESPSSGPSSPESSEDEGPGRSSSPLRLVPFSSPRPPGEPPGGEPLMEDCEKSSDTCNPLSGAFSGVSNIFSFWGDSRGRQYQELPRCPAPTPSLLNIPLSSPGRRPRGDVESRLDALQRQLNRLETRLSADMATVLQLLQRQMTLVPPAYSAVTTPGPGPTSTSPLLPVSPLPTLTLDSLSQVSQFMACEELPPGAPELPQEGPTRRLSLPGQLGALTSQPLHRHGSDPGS

Compound	hERG current change (%, negative = inhibition) at 1uM [%]
COC(=O)c1[nH]c2cc(OC)ccc2c1NC(=O)CCN1CCN(c2cccc(C)c2C)CC1	2.69
Cc1ccc(S(=O)(=O)N2CCCCC2)cc1C(=O)OCC(=O)NC(=O)NC12CC3CC(CC(C3)C1)C2	16.6
Cc1cc(Br)ccc1NC(=O)c1sc2ncn(CC(=O)N3CCN(c4ccccn4)CC3)c(=O)c2c1C	12.3
Cc1cc(OCC(=O)NCc2cccnc2)c2c3c(c(=O)oc2c1)CCCC3	-22.9
COc1ccc(C)cc1NC(=O)c1ccc(-c2ccc(C(C)=O)cc2)o1	8.64
O=C(Cc1c(Cl)cccc1Cl)OCc1ccccn1	2.17
Cc1ccc(C(=O)NCC2CCCO2)cc1S(=O)(=O)N1CCCCC1 (stereo not shown)	-0.59
COc1ccc(S(=O)(=O)Nc2cc(SCC(=O)O)c(O)c3ccccc23)cc1	14.4
CN(C)c1ccc(P(=O)(OCc2ccccc2)C(O)c2ccncc2)cc1 (stereo not shown)	-5.59
O=c1c2c([nH]c3ccccc13)CCC2	14
COc1ccc(C(=O)NCCn2cc(SCC(=O)Nc3cc(C)on3)c3ccccc32)cc1OC	9.13
COc1cccc(C2(O)CCN(CC(=O)NCC3CC3)CC2)c1	2.99
O=c1c(=O)n2c(nn1Cc1ccc(F)cc1)sc1ccccc12	9.13
COc1cccc(OC)c1OCCCNC1CCCC1.O=C(O)C(=O)O	2.94
O=C(CC(c1ccco1)S(=O)(=O)c1ccccc1)c1ccc(F)cc1 (stereo not shown)	1.73
CCc1[nH]c(C(=O)O)c(C)c1C(=O)OC	10.4
O=C(CSc1nc2ccc(Cl)cc2[nH]1)Nc1ccc2[nH]c(=O)[nH]c2c1	14.6
CCOc1ncccc1C(=O)NC(C)CCc1ccccc1 (stereo not shown)	10.1
O=C(COc1ccc([N+](=O)[O-])cc1)NCc1ccccc1	7.63
CCCCC(=O)NC1(C(F)(F)F)C(=O)Nc2c1c(=O)n(C)c(=O)n2C (stereo not shown)	7.12
NC(=O)CC(NC(=O)Cc1ccc(Br)cc1)c1ccc(NCC2CC2)c([N+](=O)[O-])c1 (stereo not shown)	3.32
C=CCSc1nc2ccsc2c(=O)n1-c1cccnc1	3.11
O=C1CC(c2cccs2)c2ccc3ccccc3c2N1 (stereo not shown)	13.8
Cc1ccc(N2CCN(C3=NC(=O)/C(=C\c4cccs4)S3)CC2)cc1	-12.5
CC[C@H](C)/C=C(C)/C=C/C1=CC2=C(Cl)C(=O)[C@@](C)(OC(C)=O)C(=O)C2=CO1	16.3
O=C1NCCN(Cc2c(F)cccc2Cl)C1CC(=O)N1CCCCO1 (stereo not shown)	17.2
O=C(c1ccc(NS(=O)(=O)c2ccccc2)cc1)N1CCCCCC1	3.03
COc1ccc(NC(=O)CN(C)C(=O)CN2C(=O)NC3(CCCCC3)C2=O)cc1	12.2

Compound	hERG current change (%, negative = inhibition) at 1uM [%]
COc1cccc(N2CCN(C(=S)Nc3cccc(C)c3)CC2)c1	7.56
CC1(C)Cc2c(cnn2-c2cccc(F)c2)C(NC(=O)c2cc[n+]([O-])cc2)C1 (stereo not shown)	-4.34
N=C(N)N1CCc2ccccc2C1.O=S(=O)(O)O	6.14
COc1ccc(OC)c(S(=O)(=O)N2CCC3(CC2)CC(=O)c2ccccc2O3)c1	3.18
O=C(CNC(=O)c1ccc(Cl)cc1)OCC(=O)c1ccccc1	-0.984
CC(=O)c1cccc(NC(=O)CN(C)S(=O)(=O)c2ccccc2)c1	3.96
COC(=O)c1ccsc1NC(=O)CN1C(=O)CCC1=O	12.5
O=C(O)CC(C(=O)Nc1ccc(Cl)cc1Cl)C1CCCO1 (stereo not shown)	3.96
C/C=C/c1ccc(OCCOc2ccc(C=O)cc2OC)c(OC)c1	12
Cc1ccc(-n2nnnc2SC(C(=O)c2c[nH]c3ccccc23)c2ccccc2)cc1 (stereo not shown)	12.2
CSc1ccc(CN(C)C(=O)CNC(=O)CNS(=O)(=O)c2ccc(C)c(C)c2)cc1	9.66
Cc1ccccc1Nc1cccc2nonc12	12.9
Cc1cc(CN(C)C(=O)c2ccc3nc(Cc4ccccc4F)oc3c2)on1	11.5
Cc1c(NC(=O)CN2C(=O)c3ccc([N+](=O)[O-])cc3C2=O)c(=O)n(-c2ccccc2)n1C	5.36
N#C/C(=C/c1ccc(Br)o1)C(N)=O	9.96
OC1(c2cccs2)CN(c2ccc(Cl)cc2)C2=[N+]1CCCS2.[Br-] (stereo not shown)	-16.2
COc1ccc(-n2nnc3c(SCC(=O)Nc4ccc5c(c4)OCCO5)ncnc32)cc1	2.74
COc1ccc(-c2nnc(SCC(=O)O)n2C)cc1OC	14.3
CCOc1ccc(C(=O)CC(NCc2cccs2)C(=O)O)cc1 (stereo not shown)	2.29
Nc1c(C(=O)Nc2ccc3c(c2)OCCO3)nnn1Cc1cccc(Cl)c1	0.624
CCC(CC)C(=O)Nc1cccc(C(=O)NCCc2ccc(S(N)(=O)=O)cc2)c1	12.7
O=C(COc1c(F)c(F)cc(F)c1F)NC(=O)NC1CCCC1	3.34
O=C(COC(=O)CNC(=O)c1ccccc1)Nc1nnc(-c2ccccc2)o1	-2.84
CCOC(=O)Cc1nnc2c(Nc3ccc(C)cc3)nc3nonc3n12	12.9
O=C(COC(=O)COc1ccccc1)Nc1ccc(Cl)cn1	13.1
O=C(c1cccc(-n2cccc2)c1)N1CCN(S(=O)(=O)c2ccc(F)cc2)CC1	8.64
CCC(C(=O)O)N1C(=O)/C(=C/c2cccn2C)SC1=S (stereo not shown)	15.2
